# PubChem BioAssay AID624418 (National Center for Advancing Translational Sciences (NCATS), 2012)
# The whole screen tested about 410,000 compounds, of which about 530 (0.13%) were called active. Inconclusive means that the source gave no clear call. Such entries were picked first, then a sample of the others. Calls follow the shape of the dose curve; as a rule, active = well fitted inhibition curve with a large enough effect; inconclusive = small, poorly fitted or top-dose-only effect, or another doubt; inactive = no such curve, though single readings can be large or run the other way. A potency beside an inconclusive call is a rough fit, not a confirmed value.
# Assay: qHTS of GLP-1 Receptor Inverse Agonists: Cytotox Screen
# Conditions: HEK293 cAMP-luciferase reporter cells, luminescence, 24 h; series mostly up to 38.3 µM
# How it was run: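 Quantitative HTS format, 1536 wells, 200 cells/uL seeded. Compounds: 23 nL, 24 h, 37 °C. Detection: luciferase reagent, luminescence at 12 min RT; decreased signal taken as cytotoxic.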
# Potency is read from the fitted curve at half-maximal effect.
row,SMILES,Potency
1,CC(C)=CCc1c(O)cc(O)c2c(=O)c3c(CC=C(C)C)c(O)ccc3oc12,"inconclusive: 22.4 µM [inhibitor, single point]"
2,CN(CC1CCCN(CCc2ccc(Cl)cc2)C1)C(=O)c1ccoc1 (stereo unspecified),inactive
3,Cc1ccc(C(=O)NC(=S)Nc2ccc3c(c2)OCCO3)c(C)c1,"inconclusive: 11.2 µM [inhibitor, partial curve, poor fit]"
4,FC(F)Oc1ccc(NC(=S)NC23CC4CC(CC(C4)C2)C3)cc1,"inconclusive: 22.4 µM [inhibitor, single point]"
5,CCCOC(=O)C(=O)NNc1ccccc1,"inconclusive: 1.78 µM [inhibitor, partial curve, poor fit]"
6,CCc1nn(CC(=O)Nc2c(C)cccc2C)c(=O)c2cc3sccc3n12,inactive
7,Cc1cc(C)cc(NC(=O)Cn2nnc(C(=O)NCc3cccs3)c2N)c1,"inconclusive: 6.31 µM [inhibitor, partial curve, poor fit]"
8,C=C(C)CNC(=S)N/N=C/c1ccc([N+](=O)[O-])cc1,"inconclusive: 10 µM [inhibitor, partial curve, poor fit]"
9,CCOC(=O)c1cn2nc(N3CCCCC3)ccc2n1,inactive
10,CCOC(=O)c1c(C)cc2c(CO)n[nH]c(=O)c2c1C,inactive
11,COc1ccc2c(Sc3ccc(Cl)cc3)c(C(=O)N3CCC(C)CC3)[nH]c2c1,inactive
12,CCCCc1ccc(/C=C(\C#N)C(N)=S)s1,"inconclusive: 22.4 µM [inhibitor, single point]"
13,CC1CCCN(Cc2ccc(OCc3ccccc3)cc2)C1 (stereo unspecified),"inconclusive: 12.6 µM [inhibitor, single point]"
14,CCN(CC)CCSc1nnc2c3ccccc3n(Cc3ccccc3)c2n1,"inconclusive: 28.2 µM [inhibitor, single point]"
15,O=C(c1ccc(CS(=O)(=O)c2ccc(Br)cc2)o1)N1CCN(c2ccccn2)CC1,"inconclusive: 8.91 µM [inhibitor, partial curve, poor fit]"
16,NC(=O)CSC1=N/C(=C\c2ccco2)C(=O)N1c1ccc(OC(F)F)cc1,"inconclusive: 22.4 µM [inhibitor, partial curve, poor fit]"
17,CCC(C)NC(=O)c1ccc2c(c1)N=C(C)c1cc(C)ccc1S2 (stereo unspecified),"inconclusive: 1.41 µM [inhibitor, full curve]"
18,O=C(Cc1ccc(S(=O)(=O)N2CCOCC2)s1)Nc1cc(C(F)(F)F)cc(C(F)(F)F)c1,"inconclusive: 28.2 µM [inhibitor, single point]"
19,O=c1[nH]c(-[n+]2ccccc2)c(/C=N/N=C(\[O-])c2ccccc2)s1,"inconclusive: 2 µM [inhibitor, partial curve, poor fit]"
20,CCCc1nc2sc3c(c2c(=O)n1NC(=O)CCCl)CCCC3,"inconclusive: 28.2 µM [inhibitor, single point]"
21,O=C(NC(=S)Nc1c(Cl)cc(Cl)cc1Cl)c1ccccc1,"inconclusive: 28.2 µM [inhibitor, single point]"
22,CCOc1cc(CNCc2ccccc2)ccc1OCC(=O)NC1CCCCC1,"inconclusive: 10 µM [inhibitor, single point]"

row,SMILES,Potency
1,O=C(NC(NC(=S)Nc1ccc(Cl)cc1)C(Cl)(Cl)Cl)c1ccco1 (stereo unspecified),"inconclusive: 11.2 µM [inhibitor, single point]"
2,O=C1NC[C@@H](CCCCN2C[C@H](Cc3ccc(O)cc3)N(CCc3ccccc3)C(=O)C2=O)N(CCc2ccc(O)cc2)C1=O,inactive
3,CC(C)(C)C(=O)Nc1ccc(Sc2ccc([N+](=O)[O-])cc2)cc1,"inconclusive: 28.2 µM [inhibitor, single point]"
4,COc1ccccc1N1CCN(C(=O)c2ccc(-c3ccc(Cl)cc3)o2)CC1,"inconclusive: 5.01 µM [inhibitor, partial curve]"
5,COc1ccc(O)c(/C=N/Nc2nc(Nc3ccccc3)nc(-n3nc(C)cc3C)n2)c1,inactive
6,CCn1nc(C(=O)NNC(=O)c2cc(Cl)ccc2OC)c2ccccc2c1=O,"inconclusive: 28.2 µM [inhibitor, single point]"
7,CN(Cc1ccccc1)C(=O)CC(c1ccccc1)c1cc(Cl)ccc1O (stereo unspecified),"inconclusive: 28.2 µM [inhibitor, single point]"
8,CCC1=Nc2cc(C(=O)NCCCOC(C)C)ccc2Sc2ccccc21,"inconclusive: 10 µM [inhibitor, single point]"
9,COc1ccc(-c2cc(OC(=O)c3cccc(C)c3)c3c(C)oc(C)c3c(=O)c2)cc1,inactive
10,CN(Cc1ccccc1)CC(O)COc1ccc(CNCCCOc2cccnc2)cc1 (stereo unspecified),"inconclusive: 12.6 µM [inhibitor, partial curve, poor fit]"
11,CCc1ccc(NC(=O)[C@H](NC(=O)[C@@H]2Cc3ccccc3CN2)c2ccccc2)cc1,"inconclusive: 28.2 µM [inhibitor, single point]"
12,CC(C)=CC(=O)Nc1ccc(Cl)cc1,inactive
13,CC(CC(=O)Nc1ccc2c(c1)c(=O)n(C)n2-c1cccs1)c1ccccc1 (stereo unspecified),"inconclusive: 10 µM [inhibitor, partial curve]"
14,Cc1ccc(C(=O)O)cc1Nc1ncnc2sc3c(c12)CCC3,"inconclusive: 0.501 µM [inhibitor, full curve, poor fit]"
15,CCn1cc(C(=O)O)c(=O)c2cc(F)c(N3CCN(C(=S)NC(=O)c4ccccc4)CC3)cc21,inactive
16,CN(C)c1ccc(C=c2c3ccccc3n3c2c2ccccc2[n+]3C)cc1,"inconclusive: 3.98 µM [inhibitor, partial curve, poor fit]"
17,S=c1[nH]nc(-c2n[nH]c3c2CCC3)n1/N=C/C=C/c1ccco1,inactive
18,CCc1cccc(CC)c1NC(=S)NC(C)c1ccccc1 (stereo unspecified),"inconclusive: 28.2 µM [inhibitor, single point]"
19,CCO[C@@H]1c2c(ccc3ccc(=O)oc23)OC(C)(C)[C@@H]1O,inactive
20,Cc1ccc(S(=O)(=O)NC(=O)C2(C)CCN2C(=O)C2(c3ccc(Cl)cc3)CC2)cc1 (stereo unspecified),"inconclusive: 12.6 µM [inhibitor, single point]"
21,Nc1ccc(N=Nc2ccc(O)cc2)c(N)n1,"inconclusive: 1.78 µM [inhibitor, partial curve, poor fit]"
22,CCc1ccc(S(=O)(=O)c2cn(C)c3cc(F)c(F)cc3c2=O)cc1,inactive

row,SMILES,Potency
1,COc1ccc2ccccc2c1C1NC(=O)c2ccccc2N1 (stereo unspecified),"inconclusive: 3.55 µM [inhibitor, full curve]"
2,Cc1ccc(C(=O)N2N=C(c3ccc(Br)cc3)CC2c2ccccc2O)cc1 (stereo unspecified),"inconclusive: 28.2 µM [inhibitor, single point]"
3,CC(=O)C1=C(c2ccc(Cl)c(Cl)c2)N(C(C)=O)n2cnnc2S1,"inconclusive: 12.6 µM [inhibitor, partial curve, poor fit]"
4,COc1ccc(C(=O)NC(C)CCc2ccccc2)c(O)c1 (stereo unspecified),inactive
5,O=C(c1c[nH]c(C(=O)N2CCN(c3ccccc3F)CC2)c1)c1cccc(Cl)c1Cl,"inconclusive: 6.31 µM [inhibitor, partial curve, poor fit]"
6,Cc1ccccc1OCc1nnc(SCc2cc(=O)c3ccc(C)c(C)c3[nH]2)n1C,inactive
7,CCOc1ccccc1NC(=O)c1ccccc1NC(=O)c1ccco1,inactive
8,CC(C)(C)c1ccc(C2=CSC3=NCCN23)cc1,"inconclusive: 10 µM [inhibitor, single point]"
9,NS(=O)(=O)c1ccc(CNC(=O)c2ccc(Cl)c(S(=O)(=O)NCc3ccccc3)c2)cc1,inactive
10,COc1ccccc1-c1cc(C(=O)NCCc2ccccc2)no1,"inconclusive: 1.58 µM [inhibitor, full curve, poor fit]"
11,Cc1ccc(S(=O)(=O)Nc2cccc3c2O[C@@H](CN(C)C(=O)Nc2ccc4c(c2)OCO4)[C@H](C)CN([C@@H](C)CO)C3=O)cc1,"inconclusive: 0.501 µM [inhibitor, full curve, poor fit]"
12,Cc1ccc(NC(=O)C2CCN(S(=O)(=O)c3ccc4c(c3)CCCN4C(=O)C3CCC3)CC2)cc1,inactive
13,COc1ccc(-n2cccc2/C=C/[N+](=O)[O-])cc1,"inconclusive: 10 µM [inhibitor, partial curve]"
14,CCOC(=O)c1ccc(NC2=CC(=O)C(=O)c3ccccc32)cc1,"inconclusive: 10 µM [inhibitor, partial curve]"
15,Cc1cc(C)nc(SCc2ccc(C(=O)N/N=C/c3ccccn3)cc2)n1,"inconclusive: 12.6 µM [inhibitor, single point]"
16,S=c1[nH]nc(-c2ccncc2)n1/N=C/C(Cl)=C\c1ccccc1,"inconclusive: 10 µM [inhibitor, single point]"
17,COc1ccccc1CNc1nc(NC(C)C)nc2cc(-c3ccccc3)sc12,"inconclusive: 28.2 µM [inhibitor, single point]"
18,N#Cc1sc2nc(N3CCCCC3)c3c(c2c1N)CCCC3,"inconclusive: 28.2 µM [inhibitor, single point]"
19,COc1cc(CNCCCN2CCOCC2)cc(Br)c1OCc1ccc(Cl)cc1,"inconclusive: 28.2 µM [inhibitor, single point]"
20,N/C(=N\OCC(=O)Nc1ccccc1)c1nonc1N,"inconclusive: 2.51 µM [inhibitor, partial curve, poor fit]"
21,Cc1nc(-c2ccc(S(=O)(=O)N(Cc3ccccc3)C(C)C)cc2)co1,inactive
22,CC(=O)/C=C(\C)N=Nc1c(O)[nH]c2ccccc12,"inconclusive: 14.1 µM [inhibitor, single point]"
